These results are taken from publication PMC4336329 (PLoS ONE, 2015).

The whole screen tested about 310,000 compounds, of which about 2,200 (0.71%) showed an effect of 50% or more. Effects have a minus sign here. Some of the results follow.

human ether-à-go-go-related gene (hERG) potassium channel, sequence (Q12809 whole entry, looked up): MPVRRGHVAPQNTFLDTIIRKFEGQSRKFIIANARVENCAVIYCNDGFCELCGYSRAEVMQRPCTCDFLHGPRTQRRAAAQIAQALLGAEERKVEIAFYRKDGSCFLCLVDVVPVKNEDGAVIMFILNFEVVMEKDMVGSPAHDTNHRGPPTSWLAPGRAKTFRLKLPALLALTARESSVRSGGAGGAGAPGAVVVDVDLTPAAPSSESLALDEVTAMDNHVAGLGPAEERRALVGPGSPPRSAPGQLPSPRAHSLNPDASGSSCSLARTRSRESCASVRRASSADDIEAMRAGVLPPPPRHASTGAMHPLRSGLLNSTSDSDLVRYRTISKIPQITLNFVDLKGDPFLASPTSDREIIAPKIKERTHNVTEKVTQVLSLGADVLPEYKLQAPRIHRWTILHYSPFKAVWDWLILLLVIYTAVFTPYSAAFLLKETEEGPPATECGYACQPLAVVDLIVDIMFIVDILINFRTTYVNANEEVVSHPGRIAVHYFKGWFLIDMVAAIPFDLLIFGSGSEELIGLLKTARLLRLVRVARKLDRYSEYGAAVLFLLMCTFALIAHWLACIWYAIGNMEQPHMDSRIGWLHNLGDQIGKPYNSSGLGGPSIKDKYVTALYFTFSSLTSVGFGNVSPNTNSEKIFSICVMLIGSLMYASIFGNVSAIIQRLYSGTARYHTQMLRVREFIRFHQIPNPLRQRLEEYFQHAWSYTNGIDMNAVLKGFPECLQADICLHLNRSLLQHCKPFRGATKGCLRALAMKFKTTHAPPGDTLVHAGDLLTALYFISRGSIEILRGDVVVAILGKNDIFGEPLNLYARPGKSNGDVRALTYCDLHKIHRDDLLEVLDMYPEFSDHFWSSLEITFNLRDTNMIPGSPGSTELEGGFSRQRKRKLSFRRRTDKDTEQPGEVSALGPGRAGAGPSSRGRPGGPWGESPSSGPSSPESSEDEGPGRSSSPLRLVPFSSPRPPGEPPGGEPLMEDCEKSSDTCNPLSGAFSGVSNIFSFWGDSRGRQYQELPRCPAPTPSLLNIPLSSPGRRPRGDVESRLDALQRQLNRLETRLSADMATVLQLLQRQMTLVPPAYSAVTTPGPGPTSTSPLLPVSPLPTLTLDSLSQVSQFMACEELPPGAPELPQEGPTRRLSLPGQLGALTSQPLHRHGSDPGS

The assay has as its target human ether-à-go-go-related gene (hERG) potassium channel (human, UniProt Q12809). Nature of the assay: primary screen, population patch clamp on CHO cells stably expressing hERG.
Take `C/C(=N\NC(=O)c1cc(C2CC2)nc2ccccc12)c1ccc(C)s1`: the “hERG current change (%, negative = inhibition) at 1uM” value was determined as 11.3%.

Turning to `CC(=O)N(Cc1ccco1)C1(C(=O)NC2CCCC2)CCCCC1`, the “hERG current change (%, negative = inhibition) at 1uM” value amounted to 19.3%.

For `O=C1CC(N2CCN(c3ccc(S(=O)(=O)N4CCOCC4)cc3)CC2)C(=O)N1Cc1ccccc1` (stereo not drawn), the “hERG current change (%, negative = inhibition) at 1uM” value is on record as -1.33%.

On to `Cc1cccc(NC(=O)CNC(=O)c2ccc3nc[nH]c3c2)c1C`, for which the “hERG current change (%, negative = inhibition) at 1uM” value is on record as 9.19%.

Turning to `CCOc1ccc(-c2nnc(SCC(=O)N3CCOCC3)o2)cc1`, the “hERG current change (%, negative = inhibition) at 1uM” value worked out at 8.43%.

Turning to `CCOC(=O)C1CCN(C(=O)COc2ccc(Cl)cc2C)CC1`, the “hERG current change (%, negative = inhibition) at 1uM” value is on record as -5.2%.

For `Cc1ccccc1S(=O)(=O)Cc1ccc(C(=O)NCCCN2CCN(C)CC2)o1`, the “hERG current change (%, negative = inhibition) at 1uM” value came to 7.39%.

In the case of `COC(=O)c1cn(-c2ccccc2)nc1-c1ccncc1`, the “hERG current change (%, negative = inhibition) at 1uM” value was found to be 5.43%.

`CCCn1nnnc1NC(=O)COc1ccc(Br)cc1`: the “hERG current change (%, negative = inhibition) at 1uM” value turned out to be 10.7%.

Turning to `O=C(N/C(=C/c1ccc(Br)cc1)C(=O)N1CCOCC1)c1ccc(Br)o1`, the “hERG current change (%, negative = inhibition) at 1uM” value is listed as -26.3%.

In the case of `CCc1cccc(OCC(=O)Nc2c[nH]c(=O)[nH]c2=O)c1`, the “hERG current change (%, negative = inhibition) at 1uM” value came to 16.1%.

Consider `CN/C(=C\[N+](=O)[O-])NCCSCc1csc(CN(C)C)n1`, for which the “hERG current change (%, negative = inhibition) at 1uM” value amounted to 14.7%.

In the case of `Cc1cc(C)nc(NS(=O)(=O)c2ccc(N)cc2)n1`, the “hERG current change (%, negative = inhibition) at 1uM” value worked out at 17.1%.

With `O=C1NC(=O)N(Cc2ccc(F)cc2)C(=O)/C1=C\c1ccc([N+](=O)[O-])s1`, the “hERG current change (%, negative = inhibition) at 1uM” value was 14.9%.

Take `O=C1CCc2cc(S(=O)(=O)Nc3ccccc3)cc3c2N1CC3`: the “hERG current change (%, negative = inhibition) at 1uM” value is 5.11%.

Take `Cc1nn(CCC(=O)NCc2ccc(OC(C)C)cc2)c(=O)c2nn(-c3ccccc3)c(C)c12`: the “hERG current change (%, negative = inhibition) at 1uM” value worked out at 4%.

As to `CCCCc1ccc(N2C(=O)[C@@H]3C(CC(N)=O)NC4(C(=O)Nc5ccc(F)cc54)[C@@H]3C2=O)cc1` (stereo partly drawn), the “hERG current change (%, negative = inhibition) at 1uM” value is recorded as -1.85%.

With `Cc1ccc(S(=O)(=O)N2CCN(C(=O)CSc3nnnn3C)C2)cc1`, the “hERG current change (%, negative = inhibition) at 1uM” value is 5.15%.

Regarding `CCOC(=S)SCC(=O)N1CCc2cc(OC)ccc2C1C1C(=O)CCCC1=O` (stereo not drawn), the “hERG current change (%, negative = inhibition) at 1uM” value was found to be 15.1%.

As for `COCCNC(=O)c1cc(S(=O)(=O)N2CCCCC2)ccc1N1CCOCC1`, the “hERG current change (%, negative = inhibition) at 1uM” value was 13.7%.

For the compound `CN(C)CC#CCCCCCCC#CCN(C)C`, the “hERG current change (%, negative = inhibition) at 1uM” value amounted to 9.63%.

Take `Cc1ccc(NCc2nnc(SCC(=O)Nc3ncc(C)s3)n2Cc2ccco2)c(C)c1`: the “hERG current change (%, negative = inhibition) at 1uM” value is on record as 11.8%.

With `CC(=O)c1ccc(OCCCC(=O)N2CCN(S(=O)(=O)c3cc(C)ccc3C)CC2)cc1`, the “hERG current change (%, negative = inhibition) at 1uM” value came to 3.54%.

Consider `O=C(CCN1C(=O)C2CCCCC2C1=O)Nc1cc([N+](=O)[O-])ccc1Cl` (stereo not drawn), for which the “hERG current change (%, negative = inhibition) at 1uM” value stood at 9.41%.
